# Counter-ions that a name gives are not always drawn. The list shows a part of the results. Many values rest on one well or one pass, so single values are uncertain.
# Test system: OVCAR4
# Test: log2 surviving fraction (library drug vs vehicle, or drug + carboplatin vs carboplatin alone; relative to plate median); ovarian cancer lines: OVCAR4 is platinum-sensitive and Ov4Carbo platinum-resistant; higher = more cell survival
# Details: library drug concentration 10 µM; 7 days; carboplatin co-treatment 0 µM
row,SMILES,log2 surviving fraction
1,CCN(CC)CCOc1ccc(C(=C(Cl)c2ccccc2)c2ccccc2)cc1 [Clomifene citrate (Serophene)],-3.34
2,COC(=O)[C@H](c1ccccc1Cl)N1CCc2sccc2C1 [Clopidogrel (Plavix)],1.11
3,Oc1c(Br)cc(Br)c2cccnc12 [Broxyquinoline],-1.81
4,NC(=O)c1ncn([C@@H]2O[C@H](CO)[C@@H](O)[C@H]2O)c1N [Acadesine],0.328
5,CCCSc1ccc2[nH]c(NC(=O)OC)nc2c1 [Albendazole (Albenza)],-8.53

# Same assay, conditions: library drug concentration 10 µM; 7 days; carboplatin co-treatment 5 µM
row,SMILES,log2 surviving fraction
1,C=C(c1ccc(C(=O)O)cc1)c1cc2c(cc1C)C(C)(C)CCC2(C)C [Bexarotene],-0.0143
2,CC(=O)O[C@]1(C(C)=O)CC[C@H]2[C@@H]3C=C(C)C4=CC(=O)CC[C@]4(C)[C@H]3CC[C@@]21C [Megestrol Acetate],-6.43
3,CCC(C)n1ncn(-c2ccc(N3CCN(c4ccc(OCC5COC(Cn6cncn6)(c6ccc(Cl)cc6Cl)O5)cc4)CC3)cc2)c1=O (stereo not given) [Itraconazole (Sporanox)],0.614
4,CCOC(=O)c1ccc(N)cc1 [Benzocaine],0.627
5,O=c1oc2c(O)c(O)cc3c(=O)oc4c(O)c(O)cc1c4c23 [Ellagic acid],-0.284
6,CS(=O)(=O)Nc1ccc([N+](=O)[O-])cc1Oc1ccccc1 [Nimesulide],0.316
7,CCOC(=O)N1CCC(=C2c3ccc(Cl)cc3CCc3cccnc32)CC1 [Loratadine],-0.276
8,CC1(C)S[C@@H]2[C@H](NC(=O)[C@H](NC(=O)N3CCNC3=O)c3ccccc3)C(=O)N2[C@H]1C(=O)O [Azlocillin sodium salt],-0.456
9,CNC1CCCN(c2c(F)cc3c(=O)c(C(=O)O)cn(C4CC4)c3c2OC)C1 (stereo not given) [Balofloxacin],1.51
10,CNCC[C@H](Oc1cccc2ccccc12)c1cccs1 [Duloxetine HCl (Cymbalta)],-1.72
11,CC(C)NCC(O)COc1cccc2[nH]ccc12 (stereo not given) [Pindolol],1.35
12,Cc1noc(NS(=O)(=O)c2ccc(N)cc2)c1C [Sulfisoxazole],0.586
13,NCCS [Cysteamine HCl],-2.91
14,C[C@@H]1C[C@H]2[C@@H]3CCC4=CC(=O)C=C[C@]4(C)[C@@]3(F)[C@@H](O)C[C@]2(C)[C@@]1(O)C(=O)CO [Dexamethasone],0.382
15,Nc1ncn([C@@H]2O[C@H](CO)[C@@H](O)[C@H]2O)c(=O)n1 [Azacitidine (Vidaza)],-3.04
16,CCCC(=O)[O-].[Na+] [Sodium butyrate],1.19
17,CC(=O)N1CCN(c2ccc(OCC3COC(Cn4ccnc4)(c4ccc(Cl)cc4Cl)O3)cc2)CC1 (stereo not given) [Ketoconazole],-1.55
18,Nc1nnc(-c2cccc(Cl)c2Cl)c(N)n1 [Lamotrigine],0.00139
19,NCCS(=O)(=O)O [Taurine],0.896
20,CCCCCCNC(=O)n1cc(F)c(=O)[nH]c1=O [Carmofur],-8.27

row,SMILES,log2 surviving fraction
1,CNS(=O)(=O)CCc1ccc2[nH]cc(C3CCN(C)CC3)c2c1 [Naratriptan HCl],0.244
2,COc1cc(/C=C/C(=O)CC(=O)/C=C/c2ccc(O)c(OC)c2)ccc1O [Curcumin],-2.24
3,COc1c(C)c2c(c(O)c1C/C=C(\C)CCC(=O)OCCN1CCOCC1)C(=O)OC2 [Mycophenolate mofetil (CellCept)],-4.08
4,CC1=C(/C=C/C(C)=C/C=C/C(C)=C/C=C/C=C(C)/C=C/C=C(C)/C=C/C2=C(C)CCCC2(C)C)C(C)(C)CCC1 [Beta Carotene],0.263
5,O=C[C@H](O)[C@@H](O)[C@H](O)CO [Xylose],0.326
6,COc1cc(NS(=O)(=O)c2ccc(N)cc2)nc(OC)n1 [Sulphadimethoxine],0.00631
7,NCCc1c[nH]cn1 [Histamine Phosphate],1.41
8,COc1ccccc1OCC(O)CN1CCN(CC(=O)Nc2c(C)cccc2C)CC1 (stereo not given) [Ranolazine dihydrochloride],1.54
9,C[C@](N)(Cc1ccc(O)c(O)c1)C(=O)O [Methyldopa (Aldomet)],0.634
10,c1ccc(C2CN3CCSC3=N2)cc1 (stereo not given) [Tetramisole HCl],-0.012
11,CC1(C)O[C@@H]2C[C@H]3[C@@H]4CCC5=CC(=O)C=C[C@]5(C)[C@@]4(F)[C@@H](O)C[C@]3(C)[C@]2(C(=O)CO)O1 [Triamcinolone Acetonide],0.0103
12,C[C@]12C=CC(=O)C=C1CC[C@@H]1[C@@H]2[C@@H](O)C[C@@]2(C)[C@H]1CC[C@]2(O)C(=O)CO [Prednisolone (Hydroretrocortine)],0.789
13,NC(=O)c1cnccn1 [Pyrazinamide (Pyrazinoic acid amide)],0.939
14,CN1C2=CC(=O)/C(=N\NC(N)=O)C=C2CC1S(=O)(=O)O (stereo not given) [Carbazochrome sodium sulfonate],0.0715
15,[O-][n+]1ccccc1[S-].[O-][n+]1ccccc1[S-].[Zn+2] [Pyrithione zinc],-6.9
16,CCN(CC)CCOc1ccc(C(=C(Cl)c2ccccc2)c2ccccc2)cc1 [Clomifene citrate (Serophene)],-4.54
17,COC(=O)[C@H](c1ccccc1Cl)N1CCc2sccc2C1 [Clopidogrel (Plavix)],-0.441
18,Oc1c(Br)cc(Br)c2cccnc12 [Broxyquinoline],-2.24
19,NC(=O)c1ncn([C@@H]2O[C@H](CO)[C@@H](O)[C@H]2O)c1N [Acadesine],0.57
20,CCCSc1ccc2[nH]c(NC(=O)OC)nc2c1 [Albendazole (Albenza)],-5.02
